# Measured values: PubChem BioAssay AID504339 (National Center for Advancing Translational Sciences (NCATS), 2011)
# In all, about 390,000 compounds went through this assay and about 17,000 (4.4%) were called active. Inconclusive means that the source gave no clear call. Such entries were picked first, then a sample of the others. Calls follow the shape of the dose curve; as a rule, active = well fitted inhibition curve with a large enough effect; inconclusive = small, poorly fitted or top-dose-only effect; inactive = no such curve, though single readings can be large or run the other way. Potencies of inconclusive entries are doubtful fits and often do not repeat.
# Target: Lysine-specific demethylase 4A (Homo sapiens) (UniProt O75164)
# Test: qHTS Assay for Inhibitors of JMJD2A-Tudor Domain; also: nearly all actives have a fitted effect of over 50% in size
# Conditions: AlphaScreen JMJD2A-Tudor / H3K4me3 peptide binding; activity change, negative = inhibition: at 114 µM (top of the series)
# % is scaled to controls: 0 for no effect and ±100 for the full control effect; potency is read from the fitted curve at half-maximal effect; tags tell the direction and shape of the fitted curve.
# Chain of UniProt O75164 (O75164 whole entry, looked up, the tested form may be a part): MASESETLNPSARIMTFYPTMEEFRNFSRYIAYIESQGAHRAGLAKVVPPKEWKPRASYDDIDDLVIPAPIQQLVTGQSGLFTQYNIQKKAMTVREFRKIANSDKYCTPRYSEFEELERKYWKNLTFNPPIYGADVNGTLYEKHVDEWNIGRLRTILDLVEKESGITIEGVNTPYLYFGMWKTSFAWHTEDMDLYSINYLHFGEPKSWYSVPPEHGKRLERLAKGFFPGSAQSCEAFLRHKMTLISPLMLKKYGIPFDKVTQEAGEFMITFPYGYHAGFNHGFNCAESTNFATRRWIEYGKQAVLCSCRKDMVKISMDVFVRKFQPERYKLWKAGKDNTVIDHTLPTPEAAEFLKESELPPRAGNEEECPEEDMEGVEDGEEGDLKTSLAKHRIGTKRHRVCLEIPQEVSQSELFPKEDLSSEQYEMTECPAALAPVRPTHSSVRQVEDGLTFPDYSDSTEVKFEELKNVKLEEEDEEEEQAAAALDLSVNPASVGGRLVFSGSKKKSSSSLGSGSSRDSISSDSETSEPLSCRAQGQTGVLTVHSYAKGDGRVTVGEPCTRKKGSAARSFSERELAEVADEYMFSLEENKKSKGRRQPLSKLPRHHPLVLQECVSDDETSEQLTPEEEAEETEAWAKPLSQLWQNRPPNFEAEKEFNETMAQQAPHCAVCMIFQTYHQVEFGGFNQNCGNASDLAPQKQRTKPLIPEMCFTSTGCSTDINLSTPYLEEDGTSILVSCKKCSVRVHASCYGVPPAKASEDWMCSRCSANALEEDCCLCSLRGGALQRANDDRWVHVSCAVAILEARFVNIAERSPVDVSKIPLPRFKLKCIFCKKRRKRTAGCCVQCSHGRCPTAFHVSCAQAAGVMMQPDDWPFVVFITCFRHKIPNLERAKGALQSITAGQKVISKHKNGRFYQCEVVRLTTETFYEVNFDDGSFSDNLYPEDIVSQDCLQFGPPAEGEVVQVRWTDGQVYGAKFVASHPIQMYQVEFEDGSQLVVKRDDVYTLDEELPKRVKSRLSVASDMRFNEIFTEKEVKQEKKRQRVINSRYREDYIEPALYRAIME
Structure (SMILES),"activity change, negative = inhibition",Potency
COc1ccc(NC(=O)CN(C)CC(=O)Nc2cccc3ccccc23)c(OC)c1,inconclusive: -100% [inhibitor],–
COc1cc(/C=C2\SC(=S)N(Nc3ncc(C(F)(F)F)cc3Cl)C2=O)ccc1O,–,"inconclusive: 10 µM [inhibitor, full curve]"
CCC(C)COC(=O)c1ccc(C(=O)O)cc1 (stereo not given),–,"inconclusive: 89.1 µM [inhibitor, single point]"
COc1cc(NC(=O)CCc2c(C)nc3c(c(C)nn3-c3ccccc3)c2C)cc(OC)c1OC,–,inactive
O=C(NCCCN1CCCC1)c1ccc2c(c1)N(Cc1ccccc1)CCS2,–,"inconclusive: 28.2 µM [inhibitor, full curve]"
COc1ccc(CSc2nc3ccncc3n2Cc2nc(-c3ccc(OC)c(OC)c3)oc2C)cc1,–,"inconclusive: 28.2 µM [inhibitor, full curve, poor fit]"
CCc1ccc2[nH]c(=O)c(C3C(C#N)=C(N)Oc4c3ccc3cccnc43)cc2c1 (stereo not given),–,"inconclusive: 89.1 µM [inhibitor, single point]"
CCOC(=O)CSc1nc2c([nH]c3ccccc32)c(=O)n1-c1ccc(OCC)cc1,–,"inconclusive: 3.98 µM [inhibitor, single point]"
COc1ccc(-c2cnc(N)n2C)cc1,–,"inconclusive: 50.1 µM [inhibitor, partial curve, poor fit]"
COc1ccc(-c2c(C)c3ccc(O)c(CN4CCN(C)CC4)c3oc2=O)cc1OC,–,inactive
CCN(Cc1cc(=O)[nH]c2ccccc12)C(=O)c1ccc(C)cc1,–,inactive
CCOc1ccc(NC(=O)c2cc3c(=O)n4cccc(C)c4nc3s2)cc1,–,inactive
NS(=O)(=O)c1ccc(N=Nc2ccc(O)c3ncccc23)cc1,–,active: 20 µM
C(=N\Nc1ncnc2nc[nH]c12)/c1cccs1,–,"inconclusive: 44.7 µM [inhibitor, full curve, poor fit]"
Cc1nnc(C)c2c(C)n(C(c3ccccc3)c3ccccc3)c(C)c12,–,"inconclusive: 79.4 µM [inhibitor, partial curve]"
COc1ccc(/C(O)=C2\C(=O)C(=O)N(CC3CCCO3)C2c2cc(OC)ccc2OC)cc1 (stereo not given),–,"inconclusive: 89.1 µM [inhibitor, single point]"
CN(C)CCOC1c2ccccc2-c2ccccc21,–,active: 1.41 µM
O=S(=O)(c1ccc2oc(=S)[nH]c2c1)N1CCOCC1,–,active: 79.4 µM
CC(C)(C)NC(=O)CN(Cc1cccs1)C(=O)CCN1CCc2ccccc21,–,"inconclusive: 50.1 µM [inhibitor, partial curve]"
COc1ccc(CNC(=S)N/N=C/c2ccc(O)c(OC)c2)cc1,–,"inconclusive: 56.2 µM [inhibitor, partial curve]"
Cc1cc(C)nc(N/N=C/C2=C(N3CCOCC3)C(=C\c3ccc(Cl)cc3)/CC2)n1,–,"inconclusive: 35.5 µM [inhibitor, partial curve]"
COc1ccc(N2CCN(C(=O)Cn3cnc4sc(C)c(S(=O)(=O)N5CCC(C)CC5)c4c3=O)CC2)cc1,–,"inconclusive: 25.1 µM [inhibitor, full curve]"
COC(=O)c1ccc(NC(=S)NC2CC(C)(C)NC(C)(C)C2)cc1,–,inactive
COc1ccc(OC)c(N2Cc3ccccc3C2)c1,–,"inconclusive: 100 µM [inhibitor, single point]"

Structure (SMILES),"activity change, negative = inhibition",Potency
O=S(=O)(c1cccc(F)c1)N1CCN(Cc2ccc3c(c2)OCO3)CC1,–,"inconclusive: 89.1 µM [inhibitor, partial curve]"
Cc1cccc(CS(=O)(=O)CC2Nc3ccc(C(=O)NCc4ccccc4)cc3NC2=O)c1 (stereo not given),–,inactive
Cc1cc(=O)oc2c3c(ccc12)OCN(Cc1ccccc1Cl)C3,–,inactive
O=C(CSc1nccn1-c1ccc(Cl)cc1)N1CCCc2ccccc21,–,"inconclusive: 39.8 µM [inhibitor, single point]"
O=C(CSc1ccc([N+](=O)[O-])cc1)Nc1cccc(S(=O)(=O)Nc2ccccc2F)c1,–,"inconclusive: 35.5 µM [inhibitor, partial curve, poor fit]"
COc1ccccc1/C=C/C(=O)NC(=S)Nc1ccccn1,–,inactive
O=[N+]([O-])c1cc(F)cc(F)c1Nc1ccc(F)cc1,–,active: 35.5 µM
O=[N+]([O-])c1cc(S(=O)(=O)Nc2cccc(Cl)c2)ccc1N=Nc1c(O)[nH]c2ccccc12,–,"inconclusive: 70.8 µM [inhibitor, single point]"
Cc1ccc(N=C2S/C(=C/c3cccc(OCC(=O)O)c3)C(=O)N2C)cc1C,–,"inconclusive: 79.4 µM [inhibitor, partial curve]"
COc1ccc(N2CCN(CCNC(=O)c3ccc4c(c3)[nH]c(=S)n3c5ccccc5nc43)CC2)cc1,–,"inconclusive: 50.1 µM [inhibitor, partial curve]"
COc1ccc(N2CCN(C3=CC(=O)N(c4cccc(Cl)c4)C3=O)CC2)cc1,–,"inconclusive: 14.1 µM [inhibitor, partial curve]"
CN(C)CCN1C(=O)C(O)=C(C(=O)c2cc3ccccc3o2)C1c1ccc(N(C)C)cc1 (stereo not given),–,"inconclusive: 50.1 µM [inhibitor, partial curve]"
COc1ccc(CCNC(=O)CSc2nc(=O)[nH]c3c2CCC3)cc1OC,–,inactive
Cn1c(=S)[nH]c2scc(-c3cccs3)c2c1=O,–,"inconclusive: 56.2 µM [inhibitor, partial curve]"
COc1ccccc1NC(=O)C(C)OC(=O)CCCc1c[nH]c2ccccc12 (stereo not given),–,"inconclusive: 50.1 µM [inhibitor, partial curve]"
COc1ccc(C(=O)Nc2onc3c2CCCC3)cc1,–,inactive
CCOc1ccc(-c2nc(C#N)c(NCc3ccc4c(c3)OCO4)o2)cc1,–,"inconclusive: 11.2 µM [inhibitor, full curve, poor fit]"
COC(=O)c1cc2c(ccn2-c2ccc(F)cc2)n1CC(=O)OC(C)C,–,"inconclusive: 56.2 µM [inhibitor, partial curve, poor fit]"
O=C1CS/C(=N\N=C\c2ccco2)N1c1ccccc1,–,"inconclusive: 35.5 µM [inhibitor, partial curve]"
CCCOC(=O)c1c(N)sc2c1CCC2,–,"inconclusive: 50.1 µM [inhibitor, partial curve]"
C(=C\c1ccccc1)/C=N/N1CCN(Cc2ccccc2)CC1,–,active: 50.1 µM
CCn1c(CCC(=O)Nc2nc3c(s2)CCCC3)nc2cc(S(=O)(=O)N(C)C)ccc21,–,"inconclusive: 79.4 µM [inhibitor, partial curve]"
Cc1ccc(CCNC(=O)c2nnc(Cc3cccc(F)c3)o2)cc1,–,"inconclusive: 25.1 µM [inhibitor, full curve, poor fit]"
O=c1n(Cc2ccc(F)cc2Cl)c2ccccc2c2nc(-c3ccccc3)nn12,–,inactive

Structure (SMILES),"activity change, negative = inhibition",Potency
Cn1c(=O)c2c(nc(NCCc3ccccc3)n2Cc2cccc(Br)c2)n(C)c1=O,–,"inconclusive: 11.2 µM [inhibitor, partial curve, poor fit]"
COCCCNC(=O)c1oc2ccc(S(=O)(=O)N3CCOCC3)cc2c1C,–,active: 89.1 µM
C=CCN1C(=O)/C(=C\C(C)=C\c2ccccc2)SC1=S,–,"inconclusive: 12.6 µM [inhibitor, partial curve]"
CCCc1cc(=O)n2nc(N3CCC(C(=O)NCc4ccc(C)o4)CC3)sc2n1,–,inactive
Fc1ccccc1C1c2[nH]c3ccccc3c2CCN1Cc1cccn1-c1ncccn1 (stereo not given),–,"inconclusive: 50.1 µM [inhibitor, partial curve]"
O=C(OCC#CCSc1nnc(-c2cccc3ccccc23)o1)c1ccccc1,–,inactive
CC(Oc1ccccc1)C(=O)Nc1cc(Cl)ccc1-n1cncn1 (stereo not given),–,inactive
COc1ccc(Cl)cc1NC(=S)Nc1ccccc1C,–,active: 14.1 µM
O=S(=O)(c1ccc(Cl)cc1)c1nc(-c2ccccc2Br)oc1N1CCOCC1,–,"inconclusive: 89.1 µM [inhibitor, single point]"
CC(C)(C)S(=O)(=O)/C(C#N)=N/Nc1ccc(C#N)cc1,–,inactive
CN(C)C(CNC(=O)CCCc1c[nH]c2ccccc12)c1ccco1 (stereo not given),–,"inconclusive: 79.4 µM [inhibitor, partial curve]"
S=c1[nH]nc(-c2ccccn2)n1/N=C/c1c(Cl)cccc1Cl,–,active: 3.55 µM
O=C1C(=O)N(CC2COc3ccccc3O2)c2ccccc21 (stereo not given),–,"inconclusive: 79.4 µM [inhibitor, partial curve]"
CCN1CCN(Cc2ccc(NC(=O)Nc3ccccc3OC)cc2)CC1,–,inactive
O=c1[nH]c(-c2ccc(-c3cccc(Cl)c3)o2)nc2ccccc12,–,"inconclusive: 89.1 µM [inhibitor, single point]"
CC(=O)N/C(=C\c1ccccc1)C(=O)OCC(=O)N(C)C1CCS(=O)(=O)C1 (stereo not given),–,inactive
O=C1CC(c2ccccc2)=NN1c1ccc([N+](=O)[O-])cc1,–,active: 39.8 µM
Cc1ccc(NC(=O)CCc2c(C)nn(-c3ccc(N4CCCCC4)nn3)c2C)cc1F,–,"inconclusive: 10 µM [inhibitor, full curve, poor fit]"
Cc1cc2ccccn2c1C(=O)Nc1ccc(Cl)cc1,–,inactive
C[C@@]12C(=O)Nc3cc(F)ccc3C(=O)N1[C@H]1c3ccccc3OC[C@@H]1[C@@H]2c1ccccc1,–,"inconclusive: 63.1 µM [inhibitor, partial curve, poor fit]"
CCOc1cc(/C=C/C(=O)O)ccc1OCCO,–,active: 35.5 µM
Clc1nnc(NN=C2CCCC2)c2ccccc12,–,"inconclusive: 28.2 µM [inhibitor, partial curve]"
